± gives the standard error. Variants at the background level are over-represented here. A value given as a limit tells only on which side of the number the result lay.

As a reminder, the kcat is the number of substrate molecules converted per active site and unit of time at saturation.

The chains are these.
B1: glmS ribozyme (parent)
chain: AUAAAAGCGCCAGAACUACAGAAAUGUAGUUGACGAGGAGGAGGUUUAUCGAAUUUUCGGCGGAUGCCUCCAAA

Holding throughout (settings): with glucosamine-6-phosphate
The variants in series [1] derive from B1. The series is described as follows: self-cleavage kobs at 40 uM GlcN6P; higher = faster cleavage; RNA array. An outline of the steps: (§1)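 Barcoded ribozyme variants, transcribed in situ by E. coli RNA polymerase on sequenced MiSeq chips, were followed via a hybridised Cy3 probe at 37 °C. Glucosamine-6-phosphate ranged from 40 μM to 10 mM in HEPES/KCl/Mg(OAc)2 buffer. kobs came from decay fits to per-tile medians, and kcat and KM from weighted Michaelis–Menten fits.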

Series [2] covers variants of B1. Nature of the series: self-cleavage kobs at 160 uM GlcN6P; higher = faster cleavage; RNA array. In outline: as §1
The variants in series [3] derive from B1. Nature of the series: self-cleavage kobs at 2500 uM GlcN6P; higher = faster cleavage; RNA array. In outline: as §1
Series [4] covers variants of B1. The series is described as follows: self-cleavage kobs at 10000 uM GlcN6P; higher = faster cleavage; RNA array. In outline:
as §1

In series [5] the parent is B1. The series is described as follows: self-cleavage kobs at 640 uM GlcN6P; higher = faster cleavage; RNA array. In outline:
as §1

Series [6] covers variants of B1. Nature of the series: kcat; higher = faster cleavage; RNA array. An outline of the steps: as §1

For the variant C8A A20U G62U, the “self-cleavage kobs at 40 uM GlcN6P” value in series [1] is less than 1e-05 s⁻¹.
With G7U A15C U49A C61U, in series [1], the “self-cleavage kobs at 40 uM GlcN6P” value is less than 1e-05 s⁻¹. In series [2], the “self-cleavage kobs at 160 uM GlcN6P” value is less than 1e-05 s⁻¹. Further, the “self-cleavage kobs at 2500 uM GlcN6P” value in series [3] is less than 1e-05 s⁻¹. Also, the “self-cleavage kobs at 10000 uM GlcN6P” value in series [4] was less than 1e-05 s⁻¹.
G7A C58A A64G G66A: the “self-cleavage kobs at 40 uM GlcN6P” value in series [1] is less than 1e-05 s⁻¹. The “self-cleavage kobs at 10000 uM GlcN6P” value in series [4] was less than 1e-05 s⁻¹.
Consider U2A A3U C50A, for which the “self-cleavage kobs at 40 uM GlcN6P” value in series [1] is less than 1e-05 s⁻¹. For the same variant, the “self-cleavage kobs at 10000 uM GlcN6P” value in series [4] was found to be 3.38e-05 ± 1.2e-05 s⁻¹.
Turning to G9C G51A A52U C70G, in series [1], the “self-cleavage kobs at 40 uM GlcN6P” value is less than 1e-05 s⁻¹. Besides, the “self-cleavage kobs at 640 uM GlcN6P” value in series [5] is less than 1e-05 s⁻¹.
For the variant C10A G43C, the “self-cleavage kobs at 40 uM GlcN6P” value in series [1] is less than 1e-05 s⁻¹. The “self-cleavage kobs at 640 uM GlcN6P” value in series [5] is less than 1e-05 s⁻¹. For the same variant, the “self-cleavage kobs at 160 uM GlcN6P” value in series [2] was less than 1e-05 s⁻¹.
For C8G A52U G63U A64G, the “self-cleavage kobs at 40 uM GlcN6P” value in series [1] was less than 1e-05 s⁻¹. The “self-cleavage kobs at 10000 uM GlcN6P” value in series [4] is less than 1e-05 s⁻¹.
G9A G13A: in series [1], the “self-cleavage kobs at 40 uM GlcN6P” value was less than 1e-05 s⁻¹. Also, the “self-cleavage kobs at 640 uM GlcN6P” value in series [5] was less than 1e-05 s⁻¹. For the same variant, the “self-cleavage kobs at 160 uM GlcN6P” value in series [2] is less than 1e-05 s⁻¹. In addition, the “self-cleavage kobs at 2500 uM GlcN6P” value in series [3] is less than 1e-05 s⁻¹.
As to A6C A48G G59A, the “self-cleavage kobs at 40 uM GlcN6P” value in series [1] was less than 1e-05 s⁻¹. Besides, in series [4], the “self-cleavage kobs at 10000 uM GlcN6P” value is less than 1e-05 s⁻¹.
For A33U U56C, in series [6], the kcat is less than 1e-05 s⁻¹.
For the variant A6C A14G C58U C71A, the kcat in series [6] was less than 1e-05 s⁻¹. The “self-cleavage kobs at 160 uM GlcN6P” value in series [2] was less than 1e-05 s⁻¹.
On to C8G A12U, for which, in series [1], the “self-cleavage kobs at 40 uM GlcN6P” value is less than 1e-05 s⁻¹. Also, the “self-cleavage kobs at 640 uM GlcN6P” value in series [5] was less than 1e-05 s⁻¹. Further, the “self-cleavage kobs at 160 uM GlcN6P” value in series [2] is less than 1e-05 s⁻¹. Moreover, the “self-cleavage kobs at 2500 uM GlcN6P” value in series [3] was less than 1e-05 s⁻¹. Further, in series [4], the “self-cleavage kobs at 10000 uM GlcN6P” value was less than 1e-05 s⁻¹.
A6G G38U U46C: in series [1], the “self-cleavage kobs at 40 uM GlcN6P” value is less than 1e-05 s⁻¹. Also, in series [3], the “self-cleavage kobs at 2500 uM GlcN6P” value was less than 1e-05 s⁻¹.
Take C8U G51U: the “self-cleavage kobs at 40 uM GlcN6P” value in series [1] is less than 1e-05 s⁻¹. Also, the “self-cleavage kobs at 640 uM GlcN6P” value in series [5] was less than 1e-05 s⁻¹. Moreover, the “self-cleavage kobs at 160 uM GlcN6P” value in series [2] is less than 1e-05 s⁻¹. In addition, the “self-cleavage kobs at 2500 uM GlcN6P” value in series [3] was less than 1e-05 s⁻¹.
Take A6C G44A: the “self-cleavage kobs at 40 uM GlcN6P” value in series [1] is less than 1e-05 s⁻¹. Moreover, the “self-cleavage kobs at 640 uM GlcN6P” value in series [5] was less than 1e-05 s⁻¹. Further, the “self-cleavage kobs at 160 uM GlcN6P” value in series [2] was less than 1e-05 s⁻¹. In series [4], the “self-cleavage kobs at 10000 uM GlcN6P” value was less than 1e-05 s⁻¹.
Consider G32U C68A, for which the turnover number (kcat) in series [6] was less than 1e-05 s⁻¹.
With G9A A14C G60A, the “self-cleavage kobs at 40 uM GlcN6P” value in series [1] was less than 1e-05 s⁻¹.
On to G7U C16U A39U U57C G62A, for which the “self-cleavage kobs at 40 uM GlcN6P” value in series [1] is less than 1e-05 s⁻¹. In addition, in series [4], the “self-cleavage kobs at 10000 uM GlcN6P” value is less than 1e-05 s⁻¹.
Turning to A6G A48C U54C C68A, the “self-cleavage kobs at 40 uM GlcN6P” value in series [1] was less than 1e-05 s⁻¹. For the same variant, in series [4], the “self-cleavage kobs at 10000 uM GlcN6P” value is less than 1e-05 s⁻¹.
Turning to C8U G35A, in series [6], the kcat was less than 1e-05 s⁻¹. Further, the “self-cleavage kobs at 40 uM GlcN6P” value in series [1] is less than 1e-05 s⁻¹. For the same variant, the “self-cleavage kobs at 640 uM GlcN6P” value in series [5] was less than 1e-05 s⁻¹. For the same variant, the “self-cleavage kobs at 160 uM GlcN6P” value in series [2] was less than 1e-05 s⁻¹.
For the variant C8A A15G, the “self-cleavage kobs at 40 uM GlcN6P” value in series [1] was less than 1e-05 s⁻¹.
On to C10A C50U G63A A64C, for which the “self-cleavage kobs at 40 uM GlcN6P” value in series [1] is less than 1e-05 s⁻¹. Further, the “self-cleavage kobs at 640 uM GlcN6P” value in series [5] was less than 1e-05 s⁻¹.
As to G32C A36C, in series [6], the kcat was less than 1e-05 s⁻¹. Further, in series [2], the “self-cleavage kobs at 160 uM GlcN6P” value was less than 1e-05 s⁻¹.
In the case of G7C C11G G51A, the “self-cleavage kobs at 40 uM GlcN6P” value in series [1] was less than 1e-05 s⁻¹. Besides, the “self-cleavage kobs at 10000 uM GlcN6P” value in series [4] was less than 1e-05 s⁻¹.
Consider G9A A36U G40A G60C, for which, in series [1], the “self-cleavage kobs at 40 uM GlcN6P” value is less than 1e-05 s⁻¹. For the same variant, the “self-cleavage kobs at 10000 uM GlcN6P” value in series [4] is less than 1e-05 s⁻¹.
As to A6U A48U, the “self-cleavage kobs at 40 uM GlcN6P” value in series [1] was less than 1e-05 s⁻¹. Moreover, the “self-cleavage kobs at 640 uM GlcN6P” value in series [5] is less than 1e-05 s⁻¹. The “self-cleavage kobs at 160 uM GlcN6P” value in series [2] was less than 1e-05 s⁻¹. Moreover, in series [3], the “self-cleavage kobs at 2500 uM GlcN6P” value was less than 1e-05 s⁻¹.
Turning to C10G A14C C70U, the “self-cleavage kobs at 40 uM GlcN6P” value in series [1] was less than 1e-05 s⁻¹.

The values are drawn from the supplement of paper PMC7125110.
